Assay results published in PubChem BioAssay AID624418 (National Center for Advancing Translational Sciences (NCATS), 2012).
The campaign covered roughly 410,000 compounds. About 530 (0.13%) were called active. Inconclusive means that the source gave no clear call. Such entries were picked first, then a sample of the others. The call rests on the fitted dose curve; in most records, active means well fitted inhibition curve with a large enough effect; inconclusive means small, poorly fitted or top-dose-only effect, or another doubt; inactive means no such curve, though single readings can be large or run the other way. Potencies beside an inconclusive call are fits to weak or partial responses and may not hold up.
On the % scale 0 is the no-effect control and ±100 the full control effect; potency means the concentration at half of the fitted maximal effect.

Experiment: qHTS of GLP-1 Receptor Inverse Agonists: Cytotox Screen
Conditions: HEK293 cAMP-luciferase reporter cells, luminescence, 24 h; activity change, negative = inhibition: at 38.3 µM (top of the series) unless noted
Outline: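 Step one: seed cells (200 cells/uL, DMEM with 10% Nu serum, 1% pen-strep). Step two: 12-hour incubation at 37 deg C. Step three: pin 23 nL compound, incubate 24 hr. Step four: add luciferase reagent, read luminescence 12 min later.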
For `COc1ccc([N+](=O)[O-])cc1Nc1c2ccccc2nc2ccccc12`, the Potency was inconclusive: 12.6 µM [inhibitor, partial curve, poor fit].
For `CCOC(=O)N1CCN(c2ncnc3c2[nH]c2ccc(OC)cc23)CC1`, the Potency was inconclusive: 12.6 µM [inhibitor, partial curve, poor fit].
With `O=C1c2[nH]nc(-c3ccccc3O)c2C(c2cccc(Cl)c2)N1CC1CCCO1` (stereo not drawn) the Potency was inconclusive: 22.4 µM [inhibitor, single point].
For `O=S(=O)(c1ccccc1)N(CC(O)Cn1c2ccccc2c2ccccc21)c1ccccc1` (stereo not drawn), the Potency was inconclusive: 31.6 µM [inhibitor, single point].
For `COc1ccc(OCC(=O)Nc2ccc(N3CCN(C(=O)c4ccccc4)CC3)c(Cl)c2)cc1`, the Potency was “inactive”.
For `CCOc1ccc(-c2nnc(Nc3ccc(OC)c(C(=O)N4CCCCC4)c3)c3ccccc23)cc1`, the Potency was inconclusive: 20 µM [inhibitor, single point].
In the case of `CC(C)c1ccc(Nc2nc3ccc(C(=O)c4ccccc4)cc3n3cnnc23)cc1`, the Potency is reported as “inactive”.
With `O=C(O)c1cccc(NC(=O)c2cccc(S(=O)(=O)Nc3cccc(C(=O)O)c3)c2)c1` the Potency was “inactive”.
For `Cc1cccc(-c2cc3nc4c(c(NCc5ccco5)n3n2)CCCC4)c1`, the Potency was “inactive”.
In the case of `CC(C)Oc1cccc(C(=O)NC(=S)Nc2ccc(N3CCN(C)CC3)cc2)c1`, the Potency is reported as inconclusive: 28.2 µM [inhibitor, single point].
In the case of `CCCc1cc(=O)oc2c(C)c3occ(C)c3cc12`, the activity change, negative = inhibition is reported as inactive: -2.48% [at 1.53 µM].
For `Cc1ccnc(Nc2nc3ccccc3o2)n1`, the Potency was inconclusive: 11.2 µM [inhibitor, single point].
For `C[C@H]1CCC[C@]2(C)C[C@H]3OC(=O)C(CN4CCCCCC4)[C@H]3C=C12` (stereo partly drawn), the Potency was inconclusive: 11.2 µM [inhibitor, single point].
In the case of `Cc1ccc2cc(CN(CCCN3CCOCC3)C(c3nnnn3Cc3ccco3)C(C)C)c(=O)[nH]c2c1C` (stereo not drawn), the Potency is reported as inconclusive: 14.1 µM [inhibitor, single point].
For `c1ccc(-c2nc(NCc3cccnc3)c3ccccc3n2)cc1`, the Potency was inconclusive: 2.82 µM [inhibitor, full curve].
In the case of `Cc1nn(-c2nc3ccccc3s2)c(C)c1Oc1ccccc1O`, the Potency is reported as inconclusive: 8.91 µM [inhibitor, partial curve].
With `Cc1cc(C)cc(CC(Cc2nc3ccccc3[nH]2)c2nc3ccccc3[nH]2)c1` (stereo not drawn) the Potency was inconclusive: 28.2 µM [inhibitor, single point].
For `C=CCSc1n[nH]c(-c2ccc(OCCC)cc2)n1`, the Potency was inconclusive: 25.1 µM [inhibitor, single point].
For `CN(C)n1cccc1/C=C(\C#N)S(=O)(=O)c1ccc(Cl)cc1`, the Potency was inconclusive: 28.2 µM [inhibitor, single point].
In the case of `Cc1ccc(-n2cc(CN(C)Cc3nccn3C)c(-c3ccc(F)cc3)n2)cc1`, the Potency is reported as inconclusive: 12.6 µM [inhibitor, single point].
In the case of `CCOc1ccc(C(=O)Nc2cccc([N+](=O)[O-])c2)cc1Br`, the Potency is reported as inconclusive: 28.2 µM [inhibitor, single point].
For `Cc1sc2ncnc(-n3cnc4ccccc43)c2c1C`, the Potency was inconclusive: 31.6 µM [inhibitor, single point].
In the case of `C/C(=N\NC(=S)NC(C)C)c1ccccc1OC(F)F`, the Potency is reported as inconclusive: 12.6 µM [inhibitor, single point].
With `CCCCCCC(C)NC(=S)Nc1cc(S(=O)(=O)N(C)C)ccc1C` (stereo not drawn) the Potency was inconclusive: 14.1 µM [inhibitor, single point].
In the case of `CCOC(=O)c1cnc(-n2nc(C)cc2C)nc1NC`, the Potency is reported as inconclusive: 31.6 µM [inhibitor, single point].
With `O=C(Oc1cccccc1=O)c1ccccc1` the Potency was inconclusive: 22.4 µM [inhibitor, single point].
With `Cc1cc(C)c(C(=O)Nc2ccc(Br)c(C(F)(F)F)c2)c(C)c1` the Potency was inconclusive: 11.2 µM [inhibitor, partial curve, poor fit].
With `COc1ccc2c(c1)/C(=C\c1cccc(/C=C3/C(=O)Nc4ccc(OC)cc43)n1)C(=O)N2` the Potency was active: 2.24 µM.
With `CCCCNc1nc(N)nc(-c2cc(Cl)ccc2O)n1` the Potency was inconclusive: 22.4 µM [inhibitor, single point].
With `CCO[C@@H]1OC(C(=O)NCc2ccccc2)=C[C@H](c2ccc(C(F)(F)F)cc2)[C@H]1CCCO` the Potency was inconclusive: 28.2 µM [inhibitor, single point].
With `COc1ccc(NC(=O)Nc2ccccc2OC)cc1` the Potency was “inactive”.
In the case of `Fc1cccc(NC(=S)NCCc2ccccc2)c1`, the Potency is reported as inconclusive: 8.91 µM [inhibitor, partial curve].
With `O=C(c1cc([N+](=O)[O-])ccc1N1CCOCC1)N1CCCC1` the Potency was inconclusive: 8.91 µM [inhibitor, partial curve, poor fit].
For `Brc1ccc(-c2cn3c(n2)CCc2ccc4cccnc4c2-3)cc1`, the Potency was “inactive”.
With `O=c1[nH]n2c(=O)c3c([nH]c2c1N=Nc1cccc(C(F)(F)F)c1)CCCC3` the Potency was inconclusive: 31.6 µM [inhibitor, single point].
In the case of `Cc1cc(C)c(NC(=O)CSC2=Nc3ccccc3C3=NC(CC(=O)NCc4cccs4)C(=O)N23)c(C)c1` (stereo not drawn), the Potency is reported as “inactive”.
For `CN(C)S(=O)(=O)c1ccc(C(=O)Nc2ccccc2[N+](=O)[O-])cc1`, the Potency was “inactive”.
In the case of `CC(C)NC(=S)N/N=C/c1c[nH]c2ccccc12`, the Potency is reported as active: 10 µM.
In the case of `COc1ccccc1CCC(=O)Nc1ccc2c(c1)c(=O)n(C)n2Cc1ccc(F)cc1`, the Potency is reported as inconclusive: 12.6 µM [inhibitor, single point].
With `COc1ccc(-c2cccc([C@H]3[C@@H]4C=CC[C@@H](C)[C@@H]4C(=O)N3Cc3ccccc3)c2)cc1` the Potency was “inactive”.
For `Cc1cccc(C(=O)N2CCc3cc(-c4csc(NC(=O)CN5CCCC5)n4)ccc32)c1`, the Potency was inconclusive: 11.2 µM [inhibitor, single point].
With `CCOCCCNC(=O)C(=O)Nc1c2c(nn1-c1ccccc1)CSC2` the Potency was “inactive”.
For `Cc1ccc(-c2nc(NC(=O)c3nn(C)cc3[N+](=O)[O-])sc2C)cc1`, the Potency was inconclusive: 7.94 µM [inhibitor, partial curve, poor fit].
For `COCCCn1c(=O)c2sccc2n2c(CCCC(=O)Nc3cccc(OC)c3)nnc12`, the Potency was “inactive”.
For `CCOP(=O)(OCC)c1nc(-c2ccc(Cl)cc2Cl)oc1N1CCCCC1`, the Potency was inconclusive: 22.4 µM [inhibitor, single point].
For `COc1ccccc1OCC(=O)Nc1ccc(-c2nnc(-c3ccco3)o2)cc1`, the activity change, negative = inhibition was inactive: 4.18% [at 0.307 µM].
With `CCn1c(C)nc2cc(S(=O)(=O)C(F)(F)C(F)C(F)(F)F)ccc21` (stereo not drawn) the Potency was “inactive”.
With `COCCNC(=O)C1CCCN(C(=O)COc2ccc(C(C)(C)C)cc2)CC1` (stereo not drawn) the Potency was “inactive”.
In the case of `COc1ccccc1C(=O)Nc1ccc(-c2cc(C(F)(F)F)nn2-c2ccccc2)cc1`, the Potency is reported as inconclusive: 14.1 µM [inhibitor, partial curve, poor fit].
In the case of `CCN1CCc2c(OCC(=O)N3N=C(c4cccs4)CC3c3ccc(F)cc3)cccc2C1=O` (stereo not drawn), the Potency is reported as inconclusive: 31.6 µM [inhibitor, single point].
With `CCCCN(C(=O)Cc1cccs1)c1nnc(-c2cccnc2)s1` the Potency was “inactive”.
In the case of `COc1c2c(cc3c1C(CC(O)Cc1ccccc1)N(C)CC3)OCO2` (stereo not drawn), the Potency is reported as inconclusive: 22.4 µM [inhibitor, single point].
In the case of `CC(=O)C1C(c2ccc([N+](=O)[O-])cc2)c2c(noc2C)CC1(C)O` (stereo not drawn), the Potency is reported as inconclusive: 15.8 µM [inhibitor, single point].
For `COc1cc(/C=N/NC(=O)CC(=O)NC2CCCCC2)ccc1O`, the Potency was “inactive”.
In the case of `CC1=CC(C)(C)NC(=S)N1c1ccc([N+](=O)[O-])cc1`, the Potency is reported as inconclusive: 10 µM [inhibitor, partial curve].
In the case of `CCOC(=O)C1=C(SCC)c2cc3c(n2C1=O)CCCC3`, the Potency is reported as inconclusive: 10 µM [inhibitor, partial curve, poor fit].
In the case of `COc1ccc(S(=O)(=O)Nc2cccc(-c3ccc(N4CCCCC4)nn3)c2)cc1F`, the Potency is reported as “inactive”.
In the case of `CCOc1cc(C(=O)N/N=C/c2ccsc2)cc(OCC)c1OCC`, the Potency is reported as inconclusive: 11.2 µM [inhibitor, partial curve, poor fit].
For `Oc1ccc(NCc2ccccc2OCc2ccccc2)cc1`, the Potency was inconclusive: 10 µM [inhibitor, partial curve, poor fit].
For `Cc1cc(C)cc(C(=O)NC(=S)Nc2cccnc2)c1`, the Potency was inconclusive: 12.6 µM [inhibitor, single point].
With `Cc1ccc(Nc2cc(C)nc(NCc3ccccc3)n2)cc1` the Potency was inconclusive: 28.2 µM [inhibitor, single point].
In the case of `CSc1ccc(CCNC(=O)CN2C(=O)COc3ccc(S(=O)(=O)N4CCCCCC4)cc32)cc1`, the Potency is reported as inconclusive: 28.2 µM [inhibitor, single point].
With `COc1ccc(C(=O)NCCc2csc(-c3ccc(Cl)cc3)n2)c(OC)c1` the Potency was “inactive”.
In the case of `CCOC(=O)c1ccc(NC(=O)C2=C(C)C(=O)OC23CCN(C(C)=O)CC3)cc1`, the Potency is reported as “inactive”.
In the case of `Cc1c([N+](=O)[O-])cnc(Sc2ccccc2)c1[N+](=O)[O-]`, the Potency is reported as inconclusive: 28.2 µM [inhibitor, single point].
With `O=C(/C(=C(\O)c1ccccc1)c1nc2ccccc2[nH]1)c1ccccc1` the Potency was inconclusive: 28.2 µM [inhibitor, single point].
For `O=C(N[C@@H](Cc1ccc(O)cc1)C(=O)O)c1ccc(C(F)(F)F)cc1`, the Potency was “inactive”.
In the case of `CCN(CC)c1ccc(C(=C2C=CC(=[N+](CC)CC)C=C2)c2ccc(N(CC)CC)cc2)cc1`, the Potency is reported as inconclusive: 12.6 µM [inhibitor, partial curve, poor fit].
